± gives the standard deviation of the averaged measurements. Growth of baker's yeast expressing single-residue variants of Pneumocystis jirovecii dihydrofolate reductase in 8.8 or 44 µM methotrexate (about 75% and 90% inhibition of the wild type). Selection coefficient per generation; 0 = like wild type, above 0 = less sensitive, below 0 = more sensitive or loss of function. No active / inactive call per row; the paper calls resistant above 0.220 (8.8 µM) or 0.243 (44 µM) together with a significance test. At 44 µM about 15% of codons end with one read or none, so the lowest values are floors (replicate rank correlation 0.74; 0.94 at 8.8 µM).
B1: UniProt A0EPZ9; numbered along this chain (parent)
chain: MDWQKSLTLIVALTLSRGIGLKNDLPWKLKSDMMFFSRVTSGLLVTRSTGQMNVVLMGRKTWESLPAHSRPLKNRINVVISRQEVLDLGGGAYHARSLDDALALLSQIYDSTSKIQLNRVFVIGGGELCKAAMEHSRLNRIIATVIHNEVDCDVFFPIDFRSSQSCLPWRKQDHSVLEAWVGSKVPQGKINENGFIYEFEMWIRDI

Variants of: B1
Experiment: selection coefficient against synonymous wild-type codons (log2 per generation); higher = faster growth than wild type
Conditions: with Saccharomyces cerevisiae carrying the variant on a plasmid
Description: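 Pooled growth of yeast carrying single-residue variants of P. jirovecii dihydrofolate reductase (own DFR1 gene intact), two passages at 30 °C, three cultures, sequenced before and after. Codons with under 15 starting reads are left out; codons of one change are averaged.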

Variant | selection coefficient against synonymous wild-type codons (log2) (methotrexate 8.8 µM) | selection coefficient against synonymous wild-type codons (log2) (methotrexate 44 µM)
I123F | -0.0828 ± 0.0081 | 0.205 ± 0.075
I123G | -0.195 ± 0.03 | -0.0354 ± 0.24
I123H | -0.668 ± 0.081 | -0.235 ± 0.036
I123K | -0.839 ± 0.089 | -0.377 ± 0.058
I123L | 0.77 ± 0.026 | 1.22 ± 0.069
I123M | -0.0338 ± 0.028 | 0.36 ± 0.031
I123N | -0.47 ± 0.11 | -0.107 ± 0.042
I123P | -0.554 ± 0.17 | -0.122 ± 0.12
I123Q | 0.0178 ± 0.022 | 0.306 ± 0.051
I123R | -0.705 ± 0.096 | -0.239 ± 0.076
I123S | 0.0222 ± 0.021 | 0.201 ± 0.12
I123T | 0.224 ± 0.031 | 0.441 ± 0.066
I123V | 0.0179 ± 0.043 | 0.0905 ± 0.1
I123W | -0.603 ± 0.029 | -0.323 ± 0.032
I123Y | -0.559 ± 0.036 | -0.331 ± 0.057
G124A | 0.737 ± 0.043 | 1.59 ± 0.046
G124C | 0.255 ± 0.025 | 0.834 ± 0.052
G124D | -0.355 ± 0.078 | 0.16 ± 0.04
G124E | -0.477 ± 0.071 | 0.246 ± 0.015
G124H | -0.593 ± 0.13 | -0.107 ± 0.1
G124I | -0.627 ± 0.12 | -0.0933 ± 0.085
G124K | -0.628 ± 0.13 | -0.0327 ± 0.13
G124L | -0.59 ± 0.18 | -0.156 ± 0.24

Variant | selection coefficient against synonymous wild-type codons (log2) (methotrexate 8.8 µM) | selection coefficient against synonymous wild-type codons (log2) (methotrexate 44 µM)
G124M | -0.63 ± 0.14 | -0.295 ± 0.021
G124N | -0.631 ± 0.12 | -0.0828 ± 0.07
G124P | 0.242 ± 0.024 | 0.812 ± 0.044
G124Q | -0.844 ± 0.11 | 0.0148 ± 0.59
G124R | -0.532 ± 0.18 | 0.0121 ± 0.19
G124S | 0.856 ± 0.042 | 1.43 ± 0.05
G124T | -0.0426 ± 0.062 | 0.483 ± 0.068
G124V | -0.445 ± 0.066 | 0.231 ± 0.07
G124W | -0.219 ± 0.032 | 0.307 ± 0.08
G124Y | -0.408 ± 0.046 | 0.0714 ± 0.073
G125A | -0.444 ± 0.094 | 0.0575 ± 0.11
G125C | -0.48 ± 0.37 | -0.164 ± 0.23
G125D | -0.657 ± 0.046 | -0.453 ± 0.025
G125E | -0.678 ± 0.068 | -0.0759 ± 0.51
G125F | -0.895 ± 0.031 | -0.389 ± 0.043
G125H | -0.552 ± 0.08 | -0.12 ± 0.059
G125I | -0.814 ± 0.091 | -0.284 ± 0.094
G125K | -0.807 ± 0.048 | -0.389 ± 0.031
G125L | -0.836 ± 0.11 | -0.426 ± 0.071
G125M | -0.82 ± 0.16 | -0.383 ± 0.029
G125N | -0.613 ± 0.049 | -0.111 ± 0.051
G125P | -0.714 ± 0.067 | -0.211 ± 0.0088
G125Q | -0.766 ± 0.091 | -0.443 ± 0.14

Variant | selection coefficient against synonymous wild-type codons (log2) (methotrexate 8.8 µM) | selection coefficient against synonymous wild-type codons (log2) (methotrexate 44 µM)
G125R | -0.767 ± 0.14 | -0.357 ± 0.076
G125S | -0.0583 ± 0.041 | 0.433 ± 0.13
G125T | -0.774 ± 0.074 | -0.16 ± 0.42
G125V | -0.714 ± 0.096 | -0.403 ± 0.081
G125W | -0.838 ± 0.23 | -0.376 ± 0.13
G125Y | -0.67 ± 0.05 | -0.297 ± 0.028
G126A | 0.357 ± 0.027 | 0.575 ± 0.042
G126C | 0.108 ± 0.013 | 0.269 ± 0.067
G126D | 0.327 ± 0.03 | 0.576 ± 0.046
G126E | 0.508 ± 0.067 | 0.707 ± 0.051
G126F | -0.0814 ± 0.037 | -0.12 ± 0.14
G126H | 0.357 ± 0.032 | 0.517 ± 0.068
G126I | 0.32 ± 0.034 | 0.72 ± 0.17
G126K | 0.264 ± 0.031 | 0.318 ± 0.093
G126L | -0.204 ± 0.041 | 0.00443 ± 0.2
G126M | 0.329 ± 0.028 | 0.458 ± 0.04
G126N | 0.438 ± 0.034 | 0.627 ± 0.077
G126P | 0.9 ± 0.056 | 1.44 ± 0.035
G126Q | 0.36 ± 0.056 | 0.519 ± 0.0094
G126R | 0.357 ± 0.033 | 0.517 ± 0.057
G126S | 0.235 ± 0.034 | 0.383 ± 0.027
G126T | 0.686 ± 0.04 | 1.06 ± 0.049
G126V | 0.529 ± 0.028 | 0.765 ± 0.051

Variant | selection coefficient against synonymous wild-type codons (log2) (methotrexate 8.8 µM) | selection coefficient against synonymous wild-type codons (log2) (methotrexate 44 µM)
G126W | 0.0167 ± 0.01 | -0.0189 ± 0.12
G126Y | -0.0439 ± 0.096 | -0.0642 ± 0.087
E127A | -0.0556 ± 0.035 | 0.207 ± 0.074
E127C | -0.449 ± 0.14 | -0.243 ± 0.038
E127D | -0.145 ± 0.033 | -0.0722 ± 0.1
E127F | -0.267 ± 0.023 | -0.132 ± 0.054
E127G | -0.0981 ± 0.023 | -0.142 ± 0.095
E127H | -0.162 ± 0.053 | 0.156 ± 0.12
E127I | -0.486 ± 0.033 | -0.347 ± 0.039
E127K | -0.147 ± 0.02 | -0.0567 ± 0.23
E127L | -0.325 ± 0.12 | -0.096 ± 0.24
E127M | -0.0805 ± 0.025 | -0.0739 ± 0.056
E127N | -0.1 ± 0.011 | -0.099 ± 0.02
E127P | 0.603 ± 0.037 | 1.12 ± 0.07
E127Q | -0.0106 ± 0.034 | 0.243 ± 0.021
E127R | -0.084 ± 0.043 | 0.00117 ± 0.27
E127S | 0.034 ± 0.055 | 0.0927 ± 0.12
E127T | -0.00672 ± 0.018 | 0.0929 ± 0.12
E127V | -0.379 ± 0.062 | -0.232 ± 0.12
E127W | 0.0175 ± 0.046 | -0.0271 ± 0.044
E127Y | -0.258 ± 0.018 | -0.184 ± 0.083
L128A | -0.737 ± 0.083 | -0.233 ± 0.093
L128C | -0.568 ± 0.1 | -0.341 ± 0.051

Variant | selection coefficient against synonymous wild-type codons (log2) (methotrexate 8.8 µM) | selection coefficient against synonymous wild-type codons (log2) (methotrexate 44 µM)
L128D | -0.746 ± 0.076 | -0.355 ± 0.051
L128E | -0.48 ± 0.068 | -0.258 ± 0.12
L128F | -0.363 ± 0.051 | -0.364 ± 0.11
L128G | -0.665 ± 0.17 | -0.268 ± 0.11
L128H | -0.251 ± 0.0066 | -0.234 ± 0.19
L128I | -0.246 ± 0.022 | -0.212 ± 0.14
L128K | -0.776 ± 0.047 | -0.272 ± 0.038
L128M | -0.384 ± 0.061 | -0.169 ± 0.092
L128N | -0.726 ± 0.046 | -0.18 ± 0.07
L128P | -0.473 ± 0.15 | -0.137 ± 0.21
L128Q | -0.687 ± 0.1 | -0.227 ± 0.068
L128R | -0.738 ± 0.074 | -0.286 ± 0.087
L128S | -0.627 ± 0.098 | -0.337 ± 0.1
L128T | -0.609 ± 0.13 | -0.291 ± 0.08
L128V | -0.261 ± 0.041 | -0.333 ± 0.081
L128W | -0.388 ± 0.08 | -0.297 ± 0.037
L128Y | -0.515 ± 0.17 | -0.145 ± 0.026
C129A | 0.353 ± 0.028 | 0.488 ± 0.045
C129D | 0.484 ± 0.012 | 0.728 ± 0.078
C129E | 0.365 ± 0.025 | 0.855 ± 0.05
C129F | 0.224 ± 0.031 | 0.262 ± 0.031
C129G | 0.235 ± 0.022 | 0.353 ± 0.051
C129H | 0.107 ± 0.035 | 0.357 ± 0.29
